Data as given in the supplement of paper PMC12217912.
Some of the results follow. Sequences were assembled here from the parent chain. Values near 0.05 are background.

B1: TEV protease; numbered along this chain (parent)
chain: MGESLFKGPRDYNPISSSICHLTNESDGHTTSLYGIGFGPFIITNKHLFRRNNGTLVVQSLHGVFKVKDTTTLQQHLVDGRDMIIIRMPKDFPPFPQKLKFREPQREERICLVTTNFQTKSMSSMVSDTSCTFPSGDGIFWKHWIQTKDGQCGSPLVSTRDGFIVGIHSASNFTNTNNYFTSVPKNFMELLTNQEAQQWVSGWRLNADSVLWGGHKVFMVKPEEPFQPVKEATQL

Variants of: B1
Assay: raw area under fraction-flipped curve 0-4 h after induction (AUC4h, not background-subtracted), DNA-recorder readout of cleavage of the substrate (dimensionless); higher = more cleavage of the substrate by the protease variant
Details: temperature: 34 °C; time window: 0-4 h after rhamnose induction
Protocol: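 In vivo DNA recorder in E. coli TOP10(DE3) ΔrhaA at 34 °C. Each TEVp single-site mutant (parent TEVp 0) is paired with a single-site variant of the 7-mer TEVs (canonical ENLYFQ|S). The substrate sits between flexible linkers in a Bxb1-sfGFP-TEVs-SsrA fusion, so cleavage stabilises Bxb1 and speeds flipping of a recombination array, read by NGS. The value is the raw area under the fraction-flipped curve over 0-4 h after rhamnose induction (AUC4h), with ≥20 reads per time point. It is not background-subtracted; inactive controls average about 0.047.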
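Note: Bxb1 expression induced with 0.2% (w/v) L-rhamnose at OD600 near 0.5, cultures sampled hourly, flipped fraction per protease–substrate barcode pair counted by paired-end Illumina sequencing.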

For MGESLFKGPRDYNPISSSICHLTNESDGHTTSLYGIGFGPFIITNKHLFRRNNGTLVVQSLHGVFKVKDTTTLQQHLVDGRDMIIIRMPKDFPPFPQKLKFREPQREERICLVTTNFQTKSMSSMVSDTSCTFPSGDGIFWKHWIQTKDGQCGSPLVSTRDGFIVGIHSASNFTNTNNYFTSVPKNFMELLTNQEAQQWVSGWYLNADSVLWGGHKVFMVKPEEPFQPVKEATQL [R204Y], the “area with substrate ENAYFQS” value was 0.0615, the “area with substrate ENCYFQS” value was 0.0861 and the “area with substrate ENDYFQS” value was 0.055. For the same variant, the “area with substrate ENEYFQS” value was 0.0687, the “area with substrate ENFYFQS” value was 0.0505 and the “area with substrate ENGYFQS” value was 0.0553. The “area with substrate ENHYFQS” value was 0.0562, the “area with substrate ENIYFQS” value was 0.123 and the “area with substrate ENKYFQS” value was 0.0738. For the same variant, the “area with substrate ENNYFQS” value was 0.0584, the “area with substrate ENPYFQS” value was 0.0702 and the “area with substrate ENQYFQS” value was 0.0672. The “area with substrate ENRYFQS” value was 0.0611, the “area with substrate ENSYFQS” value was 0.0549 and the “area with substrate ENTYFQS” value was 0.05. The “area with substrate ENVYFQS” value was 0.0842, the “area with substrate ENWYFQS” value was 0.0659 and the “area with substrate ENYYFQS” value was 0.0604.

In the case of MGESLFKGPRDYNPISSSICHLTNESDGHTTSLYGIGFGPFIITNKHLFRRNNGTLVVQSLHGVFKVKDTTTLQQHLVDGRDMIIIRMPKDFPPFPQKLKFREPQREERICLVTTNFQTKSMSSMVSDTSCTFPSGDGIFWKHWIQTKDGQCGSPLVSTRDGFIVGIHSASNFTNTNNYFTSVPKNFMEVLTNQEAQQWVSGWRLNADSVLWGGHKVFMVKPEEPFQPVKEATQL [L190V], the “area with substrate ENAYFQS” value is reported as 0.0633, the “area with substrate ENCYFQS” value is reported as 0.0643 and the “area with substrate ENDYFQS” value is reported as 0.0469. For the same variant, the “area with substrate ENEYFQS” value was 0.0595, the “area with substrate ENFYFQS” value was 0.0716 and the “area with substrate ENIYFQS” value was 0.092. The “area with substrate ENNYFQS” value was 0.056, the “area with substrate ENPYFQS” value was 0.0583 and the “area with substrate ENRYFQS” value was 0.0595. For the same variant, the “area with substrate ENSYFQS” value was 0.0528, the “area with substrate ENVYFQS” value was 0.059 and the “area with substrate ENWYFQS” value was 0.0784.

With MGESLFKGPRDYNPISSSICHLTNESDGHTTSLYGIGFGPFIITNKHLFRRNKGTLVVQSLHGVFKVKDTTTLQQHLVDGRDMIIIRMPKDFPPFPQKLKFREPQREERICLVTTNFQTKSMSSMVSDTSCTFPSGDGIFWKHWIQTKDGQCGSPLVSTRDGFIVGIHSASNFTNTNNYFTSVPKNFMELLTNQEAQQWVSGWRLNADSVLWGGHKVFMVKPEEPFQPVKEATQL [N53K] the “area with substrate ENAYFQS” value was 0.064, the “area with substrate ENDYFQS” value was 0.0698 and the “area with substrate ENEYFQS” value was 0.0638. For the same variant, the “area with substrate ENGYFQS” value was 0.0463, the “area with substrate ENHYFQS” value was 0.0531 and the “area with substrate ENIYFQS” value was 0.0925. For the same variant, the “area with substrate ENKYFQS” value was 0.0653, the “area with substrate ENNYFQS” value was 0.0518 and the “area with substrate ENPYFQS” value was 0.0491. For the same variant, the “area with substrate ENQYFQS” value was 0.0651, the “area with substrate ENSYFQS” value was 0.0581 and the “area with substrate ENTYFQS” value was 0.0517. For the same variant, the “area with substrate ENVYFQS” value was 0.0744, the “area with substrate ENWYFQS” value was 0.0668 and the “area with substrate ENYYFQS” value was 0.0631.

With MGESLFKGPRDYNPISSSICHLTNESDGHTTSLYGIGFGPFIITNKHLFRRNNGTLVVWSLHGVFKVKDTTTLQQHLVDGRDMIIIRMPKDFPPFPQKLKFREPQREERICLVTTNFQTKSMSSMVSDTSCTFPSGDGIFWKHWIQTKDGQCGSPLVSTRDGFIVGIHSASNFTNTNNYFTSVPKNFMELLTNQEAQQWVSGWRLNADSVLWGGHKVFMVKPEEPFQPVKEATQL [Q59W] the “area with substrate ENAYFQS” value was 0.0378, the “area with substrate ENCYFQS” value was 0.0589 and the “area with substrate ENDYFQS” value was 0.0501. The “area with substrate ENGYFQS” value was 0.0366, the “area with substrate ENKYFQS” value was 0.053 and the “area with substrate ENMYFQS” value was 0.07. For the same variant, the “area with substrate ENNYFQS” value was 0.0812, the “area with substrate ENQYFQS” value was 0.0549 and the “area with substrate ENRYFQS” value was 0.0574. The “area with substrate ENSYFQS” value was 0.0501, the “area with substrate ENTYFQS” value was 0.0897 and the “area with substrate ENVYFQS” value was 0.0754. The “area with substrate ENWYFQS” value was 0.0502 and the “area with substrate ENYYFQS” value was 0.0656.

With MGESLFKGPRDYNPISSSICHLTNESDGHTTSLYGIGFGPFIITNKHLFRRNNGTLVVQSLHGVFKVKDTTTLQQHLVDGRDMIIIRMPKDFPPFPQKLKFREPQREERICLVTTNFQTKSMSSMVSDTSCTFPSGDGIFWKHWIQTKDGQCGSPLVSTRDGFIVGIHSASNFTNTNNYFTSVPKNFMELLTNQEAQQWVSGWRLNADSVLWGGHKVFMVKPEEPFQPVKEDTQL [A232D] the “area with substrate ENAYFQS” value was 0.0622, the “area with substrate ENDYFQS” value was 0.0691 and the “area with substrate ENEYFQS” value was 0.0549. For the same variant, the “area with substrate ENFYFQS” value was 0.0682, the “area with substrate ENGYFQS” value was 0.0579 and the “area with substrate ENHYFQS” value was 0.0728. For the same variant, the “area with substrate ENMYFQS” value was 0.0964, the “area with substrate ENPYFQS” value was 0.0583 and the “area with substrate ENQYFQS” value was 0.0627. The “area with substrate ENRYFQS” value was 0.0567, the “area with substrate ENTYFQS” value was 0.0788 and the “area with substrate ENVYFQS” value was 0.0871. For the same variant, the “area with substrate ENYYFQS” value was 0.0466.

For MGESLFKGPRDYNPISSSICHLTNESDGHTTSLYGIGFGPFIITNKHLFRRNNGTLVVQSLHGVFKVKDTTTLQGHLVDGRDMIIIRMPKDFPPFPQKLKFREPQREERICLVTTNFQTKSMSSMVSDTSCTFPSGDGIFWKHWIQTKDGQCGSPLVSTRDGFIVGIHSASNFTNTNNYFTSVPKNFMELLTNQEAQQWVSGWRLNADSVLWGGHKVFMVKPEEPFQPVKEATQL [Q75G], the “area with substrate ENAYFQS” value was 0.0474, the “area with substrate ENEYFQS” value was 0.0598 and the “area with substrate ENFYFQS” value was 0.0555. The “area with substrate ENGYFQS” value was 0.0658, the “area with substrate ENHYFQS” value was 0.075 and the “area with substrate ENIYFQS” value was 0.0934. For the same variant, the “area with substrate ENMYFQS” value was 0.0682, the “area with substrate ENNYFQS” value was 0.0521 and the “area with substrate ENPYFQS” value was 0.0525. The “area with substrate ENQYFQS” value was 0.0606, the “area with substrate ENRYFQS” value was 0.0541 and the “area with substrate ENSYFQS” value was 0.0503. For the same variant, the “area with substrate ENVYFQS” value was 0.0519.

With MGESLFKGPRDYNPISSSICHLTNESDGHTTSLYGIGFGPFIITNKHLFRRNNGTLVVQSLHGVFKVKDTTTLQQHLVDGRDMIIIRMPKYFPPFPQKLKFREPQREERICLVTTNFQTKSMSSMVSDTSCTFPSGDGIFWKHWIQTKDGQCGSPLVSTRDGFIVGIHSASNFTNTNNYFTSVPKNFMELLTNQEAQQWVSGWRLNADSVLWGGHKVFMVKPEEPFQPVKEATQL [D91Y] the “area with substrate ENAYFQS” value was 0.0538, the “area with substrate ENDYFQS” value was 0.0545 and the “area with substrate ENEYFQS” value was 0.0672. For the same variant, the “area with substrate ENFYFQS” value was 0.0378, the “area with substrate ENHYFQS” value was 0.0456 and the “area with substrate ENIYFQS” value was 0.089. The “area with substrate ENKYFQS” value was 0.0737, the “area with substrate ENNYFQS” value was 0.0603 and the “area with substrate ENPYFQS” value was 0.0595. For the same variant, the “area with substrate ENVYFQS” value was 0.113.

For MGESLFKGPRDYNPISSSICHLTNESDGHTTSLYGIGFGPFIITNKHLFRRNNGTLVVQSLHGVFKVKDTTTLQQHLVDGRDMIIIRMPKDFPPFPQKLKFREPQREERICLVTTNFQTKSMSSMVSDTSCTFPSGDGIFWKHWIQTKDGQCGSPLVSTRDGFIVGIHSASNFTNTNNYFTSVPKNFMELLTNQEAQQWVSGWRLNADSVLWGGHKVFMVKPEEPFQPVKEAIQL [T233I], the “area with substrate ENAYFQS” value was 0.0661, the “area with substrate ENCYFQS” value was 0.063 and the “area with substrate ENDYFQS” value was 0.0612. For the same variant, the “area with substrate ENEYFQS” value was 0.0618, the “area with substrate ENGYFQS” value was 0.074 and the “area with substrate ENIYFQS” value was 0.107. The “area with substrate ENNYFQS” value was 0.0455, the “area with substrate ENQYFQS” value was 0.0522 and the “area with substrate ENVYFQS” value was 0.0611.

In the case of MGESLFKGPRDYNPISSSICHLTNESDGHTTSLYGIGFGPFIITNKHLFRRNNGTLVVQNLHGVFKVKDTTTLQQHLVDGRDMIIIRMPKDFPPFPQKLKFREPQREERICLVTTNFQTKSMSSMVSDTSCTFPSGDGIFWKHWIQTKDGQCGSPLVSTRDGFIVGIHSASNFTNTNNYFTSVPKNFMELLTNQEAQQWVSGWRLNADSVLWGGHKVFMVKPEEPFQPVKEATQL [S60N], the “area with substrate ENAYFQS” value is reported as 0.0694, the “area with substrate ENCYFQS” value is reported as 0.0518 and the “area with substrate ENEYFQS” value is reported as 0.0551. The “area with substrate ENGYFQS” value was 0.0519, the “area with substrate ENHYFQS” value was 0.0588 and the “area with substrate ENIYFQS” value was 0.089. The “area with substrate ENMYFQS” value was 0.0748, the “area with substrate ENPYFQS” value was 0.0569 and the “area with substrate ENRYFQS” value was 0.0633. The “area with substrate ENSYFQS” value was 0.0494, the “area with substrate ENTYFQS” value was 0.064 and the “area with substrate ENVYFQS” value was 0.0796. For the same variant, the “area with substrate ENYYFQS” value was 0.057.
